B1: pro-IGF2(156), non-glycosylated (protein)
chain: not shown
B2: glycosylated pro-IGF2(156) (protein)
chain: not shown
modifications: glycosylated

Key:
[1] = molecular target: His-tagged IGFBP3 (Homo sapiens (Human), UniProt P17936); test: competition radioligand binding (125I-IGF2)
[2] = molecular target: IGFBP3:ALS complex, preformed on immobilized His-tagged ALS (Homo sapiens (Human),Homo sapiens …, UniProt P35858,P17936); test: competition radioligand binding (125I-IGF2); ternary complex: IGFBP3 preformed with immobilized ALS
Chain of UniProt P35858 (P35858 28-605, chain 1 of 2): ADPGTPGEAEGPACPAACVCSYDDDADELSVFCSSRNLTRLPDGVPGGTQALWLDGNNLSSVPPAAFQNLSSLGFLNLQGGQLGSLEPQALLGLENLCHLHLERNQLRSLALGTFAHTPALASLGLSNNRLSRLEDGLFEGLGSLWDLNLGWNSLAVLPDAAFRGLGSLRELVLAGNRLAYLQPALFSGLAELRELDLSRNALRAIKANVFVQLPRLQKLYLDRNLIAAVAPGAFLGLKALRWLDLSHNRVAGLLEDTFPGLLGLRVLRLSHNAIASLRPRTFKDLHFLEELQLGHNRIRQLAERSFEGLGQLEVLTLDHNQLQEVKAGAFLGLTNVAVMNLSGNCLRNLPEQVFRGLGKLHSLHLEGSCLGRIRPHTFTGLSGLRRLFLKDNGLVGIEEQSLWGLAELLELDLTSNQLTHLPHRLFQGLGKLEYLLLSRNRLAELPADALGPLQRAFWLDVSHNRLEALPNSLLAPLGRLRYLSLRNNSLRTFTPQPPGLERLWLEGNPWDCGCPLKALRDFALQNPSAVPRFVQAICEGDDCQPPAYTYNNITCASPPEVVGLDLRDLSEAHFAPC
Chain of UniProt P35858 (P17936 28-291, chain 2 of 2, further chain): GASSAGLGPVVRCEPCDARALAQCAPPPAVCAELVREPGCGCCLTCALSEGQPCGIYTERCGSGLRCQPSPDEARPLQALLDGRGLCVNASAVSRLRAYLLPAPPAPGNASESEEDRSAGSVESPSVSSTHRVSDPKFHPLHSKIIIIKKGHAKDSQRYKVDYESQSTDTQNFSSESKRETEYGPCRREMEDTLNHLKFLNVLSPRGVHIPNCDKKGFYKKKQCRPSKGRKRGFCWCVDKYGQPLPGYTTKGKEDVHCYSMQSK

Chain of UniProt P17936 (P17936 28-291): as the sequence (P17936 28-291, chain 2 of 2, further chain) above

Binder	binding result [1]	binding result [2]
B1	binds	binds
B2	binds	–

Source: article PMC10439913 (2023)
